The results in this text go back to patent US20260176310A1 (NAVIGO PROTEINS, published 2026).

T1: hFAP-Fc (human, UniProt Q12884 26-760)
T1 construct: extracellular domain; Made in house in Expi293-F cells; also called hFAP-Fc-His; human FAP; not shown: IgG1-Fc
T1 sequence (looked up): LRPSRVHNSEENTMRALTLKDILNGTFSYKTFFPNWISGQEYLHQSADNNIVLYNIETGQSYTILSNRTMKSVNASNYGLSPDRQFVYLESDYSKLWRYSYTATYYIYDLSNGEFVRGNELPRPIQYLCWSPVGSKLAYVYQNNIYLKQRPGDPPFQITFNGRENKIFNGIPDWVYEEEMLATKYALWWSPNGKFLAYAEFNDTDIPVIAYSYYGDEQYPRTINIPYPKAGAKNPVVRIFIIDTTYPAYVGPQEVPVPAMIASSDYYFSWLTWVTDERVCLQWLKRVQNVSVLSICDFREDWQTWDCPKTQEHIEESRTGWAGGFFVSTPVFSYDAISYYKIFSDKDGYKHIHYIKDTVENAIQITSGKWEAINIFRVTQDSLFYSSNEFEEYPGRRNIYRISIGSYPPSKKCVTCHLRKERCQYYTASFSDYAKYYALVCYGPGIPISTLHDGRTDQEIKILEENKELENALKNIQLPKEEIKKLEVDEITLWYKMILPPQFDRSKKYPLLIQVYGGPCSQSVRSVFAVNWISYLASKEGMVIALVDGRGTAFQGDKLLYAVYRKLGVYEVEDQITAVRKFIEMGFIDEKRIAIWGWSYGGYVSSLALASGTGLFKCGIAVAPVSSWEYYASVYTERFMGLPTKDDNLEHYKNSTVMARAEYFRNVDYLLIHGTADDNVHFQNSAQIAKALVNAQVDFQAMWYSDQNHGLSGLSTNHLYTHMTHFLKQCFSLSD

B1: Affilin®-217863 (designed binder)
chain: MQIFVWTEMHKRITLEVEPSDTIENVKAKIQDKEGIPPDQQHLTWKGKQLEDGRTLSDYNISEWPNLFLRLNLRAA
notes: Ubiquitin mutein
B2: Affilin®-220257 (designed binder)
chain: MQIFVWTITGKPITLEVEPSDTIENVKAKIQDKEGIPPDQQRLIWAGKQLEDGRTLSDYNIRSWPNLHLVLRLRAGMQIVVHTATGKTITLEVEPSDTIGHVKAKIQDTEGIPPDQQRLIWAGKQLEDGRTLSDYNIEDFPPLHLVLRLRAA
notes: Ubiquitin mutein
B3: Affilin®-220164 (designed binder)
chain: MQIFVWTDDWKRITLEVEPSDTIENVKAKIQDKEGIPPDQQVLAWRGKQLEDGRTLSDYNIMVWPNLWLRLRAA
notes: Ubiquitin mutein
B4: Affilin®-217990 (designed binder)
chain: MQIFVKTLTPEWHIIGKTITLEVEPSDTIENVKAKIQDKEGIPPDQQNLAWAGKQLEDGRTLSDYNIQGGSMLMLKLHLRAA
notes: Ubiquitin mutein

For one experiment, the target named is T2, mCD26 expressed on HEK293-mCD26 cells (mouse, UniProt P28843 1-760).
T2 construct: whole, on cells
T2 sequence (P28843 whole entry): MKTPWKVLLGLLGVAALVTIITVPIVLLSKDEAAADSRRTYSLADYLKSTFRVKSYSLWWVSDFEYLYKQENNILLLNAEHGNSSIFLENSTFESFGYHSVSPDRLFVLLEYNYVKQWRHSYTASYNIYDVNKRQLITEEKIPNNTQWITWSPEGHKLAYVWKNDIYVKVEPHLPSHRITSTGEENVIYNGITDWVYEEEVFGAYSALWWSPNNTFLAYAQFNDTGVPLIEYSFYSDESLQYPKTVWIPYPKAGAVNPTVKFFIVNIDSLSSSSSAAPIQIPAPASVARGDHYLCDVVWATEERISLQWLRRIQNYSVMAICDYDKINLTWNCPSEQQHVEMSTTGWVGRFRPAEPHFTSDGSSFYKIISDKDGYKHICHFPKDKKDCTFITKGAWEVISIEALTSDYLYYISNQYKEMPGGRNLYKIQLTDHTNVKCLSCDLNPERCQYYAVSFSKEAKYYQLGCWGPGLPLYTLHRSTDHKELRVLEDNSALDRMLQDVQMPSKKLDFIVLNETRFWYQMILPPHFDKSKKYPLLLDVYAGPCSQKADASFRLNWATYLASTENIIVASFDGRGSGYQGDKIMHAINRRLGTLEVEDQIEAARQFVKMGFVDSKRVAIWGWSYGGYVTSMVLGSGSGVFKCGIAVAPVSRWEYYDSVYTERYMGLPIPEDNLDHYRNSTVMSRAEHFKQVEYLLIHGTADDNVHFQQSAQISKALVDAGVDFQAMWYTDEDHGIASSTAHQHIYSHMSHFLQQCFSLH
Nature of the experiment: flow cytometry on HEK293-mCD26 cells. Background: In flow cytometry, cells or beads pass a laser one at a time.
With B1, the binding result is “no binding (tested: 1 µM, 100 nM, 10 nM, or 1 nM)”.
On the same count and under the same terms, in the case of B2 it was “no binding (tested: 1 µM, 100 nM, 10 nM, or 1 nM)”; in that of B3, “no binding (tested: 1 µM, 100 nM, 10 nM, or 1 nM)”; in that of B4, “no binding (tested: 1 µM, 100 nM, 10 nM, or 1 nM)”.

A further experiment has as its target T3, hCD26 expressed on HEK293-hCD26 cells (human, UniProt P27487 1-766).
T3 construct: whole, on cells
T3 sequence (P27487 whole entry): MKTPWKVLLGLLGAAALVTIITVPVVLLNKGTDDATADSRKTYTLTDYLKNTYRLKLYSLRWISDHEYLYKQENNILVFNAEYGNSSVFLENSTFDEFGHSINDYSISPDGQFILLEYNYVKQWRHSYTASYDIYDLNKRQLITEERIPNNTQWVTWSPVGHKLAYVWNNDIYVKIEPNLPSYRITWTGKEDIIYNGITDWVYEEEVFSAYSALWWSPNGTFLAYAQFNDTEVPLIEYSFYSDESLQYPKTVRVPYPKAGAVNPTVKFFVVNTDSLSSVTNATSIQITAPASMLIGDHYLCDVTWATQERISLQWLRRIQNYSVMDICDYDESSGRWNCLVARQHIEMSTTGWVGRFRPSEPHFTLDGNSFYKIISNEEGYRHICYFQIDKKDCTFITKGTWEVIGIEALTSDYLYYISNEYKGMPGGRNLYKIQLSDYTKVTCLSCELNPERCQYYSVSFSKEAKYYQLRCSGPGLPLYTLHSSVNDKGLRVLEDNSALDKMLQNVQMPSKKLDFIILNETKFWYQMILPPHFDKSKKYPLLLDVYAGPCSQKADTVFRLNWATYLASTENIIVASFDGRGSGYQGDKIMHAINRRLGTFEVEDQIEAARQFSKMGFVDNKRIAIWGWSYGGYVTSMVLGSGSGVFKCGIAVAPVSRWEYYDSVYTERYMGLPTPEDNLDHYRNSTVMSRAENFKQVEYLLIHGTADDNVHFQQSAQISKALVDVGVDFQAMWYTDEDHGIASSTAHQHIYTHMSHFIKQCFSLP
Description: flow cytometry on HEK293-hCD26 cells.
As to B1, the binding result was “no binding (tested: 1 µM, 100 nM, 10 nM, or 1 nM)”.
The same measure, in the same setting: the value for B2 was “no binding (tested: 1 µM, 100 nM, 10 nM, or 1 nM)”.
On the same count and under the same terms, the value for B3 was “no binding (tested: 1 µM, 100 nM, 10 nM, or 1 nM)”; that for B4 was “no binding (tested: 1 µM, 100 nM, 10 nM, or 1 nM)”.

The next experiment addresses T1, hFAP-Fc. Description: ELISA on coated hFAP-Fc (2.5 µg/ml); Affilin dilution series in 100% human serum, 0 h preincubation; detection with biotinylated anti-ubiquitin antibody and Streptavidin-HRP. As to the method: (§1) High binding plates (Greiner, 781061) were immobilized with 2.5 μg/ml hFAP-Fc over night at 4° C. Dilution series of 3 µM to 0.07 PM of Affilin® proteins were incubated in 100% human serum or 100% mouse serum for 24 h at 37° C.
(§2) ELISA-plates were washed three times with PBST (PBS+ 0.1% Tween) and blocked with 3% BSA/0.5% Tween/PBS 1 h at rt. After preincubation for 0 h or 24 h in the presence of serum the dilution series were incubated on ELISA-plates for 30 min at room temperature (rt). Wells were washed with PBST and incubated with biotinylated anti-ubiquitin-antibody (1:300) for 30 min at rt. The binding was visualized with Streptavidin-HRP (1:5.000). […] ELISA analysis confirmed the high stability of FAP binding proteins in serum.
B2 came in with a Kd of 0.32 nM.
In turn, B3 had a Kd of 0.55 nM.
On the same count and under the same terms, in the case of B4 it was 1.17 nM.

The target of another experiment is T1, hFAP-Fc. Description: ELISA on coated hFAP-Fc; Affilin in mouse serum, 0 h. As to the method: as §1, §2
For the molecule B2, the Kd stood at 0.2 nM.
B3 had a Kd of 2.1 nM.
On the same count and under the same terms, in the case of B4 it was 0.7 nM.

A further experiment deals with T1, hFAP-Fc. Nature of the experiment: SPR (Sierra SPR-32), hFAP-Fc captured on protein A, 1:1 Langmuir.
On to B1, for which binding was put at a Kd of 1.9 nM.
Turning to B2, the Kd worked out at 3.6 nM.
Same read-out and setting: in the case of B3 it was 3.8 nM.
Same read-out and setting: in the case of B4 it was 14 nM.

For the next experiment, the target named is T1, hFAP-Fc. Description: ELISA on coated hFAP-Fc; Affilin in human serum, 24 h at 37° C. As to the method:
as §1, §2
Turning to B2, the Kd was determined as 0.4 nM.
In turn, B3 showed a Kd of 0.8 nM.
Same read-out and setting: in the case of B4 it was 1.2 nM.

The Kd is a measure of binding affinity in units of concentration.
